Results: patent US6858588B2, “Nitrile glycoside useful as a bioenhancer of drugs and nutrients, process of its isolation from moringa oleifera” (Council of Scientific and Industrial Research, priority 2003, dated 2005)

System: E. coli cells (CA 8000), λ phage
Assay: λ phage adsorption on E. coli cells
Details: niaziridin 1 μg/ml, MOI=10
Protocol: Overnight grown bacterial culture (Escherichia coli, CA 8000) was divided into 5 ml of aliquot each in screw cap tubes. One of the tube with the bacterial culture was treated with niaziridin to a final concentration of 1 μg/ml. Both the control and the treated tubes were incubated at 37° C. for 4 hours. The cultures were then infected with λ phage (MOI=10) for 10 minutes at 37° C. (for adsorption) followed by centrifugation at 10000 RPM for 10 minutes at 4° C.
The supernatant and the pellets for both treated and untreated cultures were then compared for the phage titer by plating on top agar containing sensitive bacteria at different dilutions. The phage titer in the supernatant of the treated culture was reduced by 2.6 folds indicating increase in adsorption to the bacterial cells harvested in the pellet.

CC1OC(Oc2ccc(CC#N)cc2O)C(O)C(O)C1O (stereo not shown) [Niaziridin, NIAZIRIDIN]
Reduction of phage titer in the supernatant of the treated culture: 2.6 folds
